# Assay results: the supplement of paper PMC3334620
# Whole data set: some 33,000 sequences, median “E-score (-0.5 to 0.5)” near -0.017, cut for the highest 2% near 0.3. Some of the results follow.
# Biological target: T1, Sut1 (UniProt P53032)
# T1 sequence: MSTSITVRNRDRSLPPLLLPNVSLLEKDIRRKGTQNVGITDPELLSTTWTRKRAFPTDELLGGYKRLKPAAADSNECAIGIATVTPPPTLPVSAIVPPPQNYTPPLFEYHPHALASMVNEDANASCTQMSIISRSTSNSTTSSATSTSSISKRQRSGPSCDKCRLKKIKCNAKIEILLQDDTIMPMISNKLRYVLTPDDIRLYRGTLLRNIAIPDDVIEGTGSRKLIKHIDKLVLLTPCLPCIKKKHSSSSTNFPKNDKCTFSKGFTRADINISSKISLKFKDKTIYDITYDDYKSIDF
# Assay: PBM E-score (8-mer binding enrichment) (E-score (-0.5 to 0.5)); higher = stronger / more preferred TF binding; most listed sequences are background and not binding sites
# Conditions: protein concentration: 200 nM; construct: GST-full length
# Summary of the method: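 Yeast transcription factors carrying a GST tag, as full-length proteins or DNA-binding domains, were produced by PURExpress in vitro transcription/translation. About 100-200 nM protein was applied to universal all-10-mer Agilent arrays, double-stranded by primer extension on fresh or once-stripped slides. Bound protein was detected with fluorescent anti-GST, and scans were normalised with masliner. The Universal PBM Analysis Suite gave each ungapped eight-base word, pooled with its reverse complement, an E-score, a modified Wilcoxon-Mann-Whitney statistic.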
row,Sequence,PBM E-score
1,AGAAGTTA,0.0971
2,CCCCCGAG,-0.343
3,AGGCCCGG,-0.106
4,ATTCAAGG,-0.108
5,AACTGAGA,-0.00112
6,GATGATAA,0.0829
7,CACAAGCA,-0.164
8,GGGCAACA,-0.116
9,ACCAGCGT,-0.199
10,CCCAATCG,-0.0649
11,ATACTAGG,-0.0332
12,AAAAGGTG,0.0819
13,AAGGGCCC,-0.29
14,ATCACGCG,0.155
15,CGCAACTC,0.0791
16,GCGAGTCA,-0.0157
17,TAGCACCA,-0.0675
18,AACAAAAA,0.235
19,AGGTTAGG,-0.0421
20,ACCCAGGT,-0.321
21,GAACGCAA,0.0304
22,ACGGAAAT,0.344
23,CTTGCGAA,0.129
24,ACTCGTTC,-0.0358
25,ATCGTCGG,0.0502

row,Sequence,PBM E-score
1,ACTGCGTC,0.0204
2,ATGCCGCC,-0.104
3,CTTGCATC,-0.216
4,CTAATAAC,0.14
5,AGTATAGG,0.167
6,AAAAGACC,-0.07
7,CATGCAAC,0.0373
8,CCAGCGAC,-0.244
9,ACTCTTTA,0.131
10,GTGCGTGA,-0.0457
11,AATGCGTA,0.14
12,AGCGACTA,-0.118
13,CTCGCGCC,-0.113
14,ACATCCTA,-0.00892
15,CAAGGCTA,0.0982
16,CCAAAAGA,0.119
17,GGGTATGA,-0.0075
18,GTTAGCAA,0.0451
19,CACCGACG,0.0397
20,AGGCGAGC,-0.207
21,CCCATAAG,-0.2
22,AATGGCTA,0.144
23,ACCCTAGG,-0.104
24,AGCCTCCT,-0.203
25,GGCGAACA,-0.155

row,Sequence,PBM E-score
1,CAACGCAA,0.111
2,GCTAACAC,0.00897
3,CGTCGTCC,-0.0848
4,CCCGGCGG,-0.171
5,ACATGGGG,-0.311
6,ATATCCAC,-0.0115
7,AAATGAGC,-0.096
8,AGGCGTAT,-0.0672
9,ATTCGGCG,-0.0582
10,CGTACCTC,-0.044
11,GAACAATC,0.0453
12,AAATCAGC,0.0573
13,GTTGAATA,0.203
14,AGTGATGC,-0.0998
15,CTTCGCCC,-0.13
16,CATGCAGG,-0.264
17,ACTAATTA,0.247
18,GCCGATCA,0.023
19,GATTCGAA,0.209
20,ACCGGGCT,0.037
21,AGATACAC,0.136
22,CATCACAC,0.00013
23,AGATTGCT,-0.054
24,CACCATCC,-0.216
25,ATAGACAC,-0.046

row,Sequence,PBM E-score
1,TGGACCAA,0.0191
2,AGTTCCTC,-0.0836
3,CCAACCGG,0.0398
4,ACTAGACG,-0.00534
5,CACAAATG,0.0358
6,CAACGGAA,0.25
7,GCGGACCC,0.101
8,GTACGGCA,0.0305
9,ATATGGGG,-0.248
10,AAGAAGTA,0.0747
11,AAGATACA,0.127
12,GGTCTGTA,-0.107
13,CAGTCCCC,-0.297
14,ATGGGGGC,-0.409
15,CACCAAGC,-0.171
16,AGAGAGCG,-0.0777
17,GTCACGGA,0.181
18,CAGATTGG,-0.188
19,ACCGGCAT,0.012
20,CCAGTGAC,-0.274
21,ATATGAAC,0.143
22,AAGGCGAA,0.00249
23,ACGTTTTC,0.143
24,AAGAATTC,0.178
25,GTCTGAAC,0.0811

row,Sequence,PBM E-score
1,AGGCAACC,-0.135
2,ATTAAAAA,0.243
3,GTCCGGCA,0.317
4,AAAGGCGC,-0.0925
5,TCAAGTCA,0.113
6,TCGTGAGA,0.00022
7,AACCAGGC,-0.0223
8,CTCGCACC,-0.09
9,CATGGCAC,-0.041
10,CGCGGGAC,-0.0931
11,CCACTCGA,-0.0621
12,AACATTGA,0.0205
13,CGTGAGAA,-0.00194
14,CGTGGGCA,-0.279
15,CGTATCGA,-0.152
16,CACTTCCG,-0.0144
17,GTGCGACA,-0.159
18,AGGAATGA,0.0636
19,ACGCAAGT,-0.0761
20,AGTTAGTC,0.216
21,CATGGTAA,-0.036
22,AATTGCGC,0.0566
23,CTTTCCAC,0.0876
24,ACGTATAC,0.0611
25,ACTTCCCG,0.0708

row,Sequence,PBM E-score
1,AGTTAGGA,0.0901
2,GGCTAGTA,0.0422
3,ACCCTCGT,-0.291
4,CTACCGAA,-0.0231
5,CTCCAAGA,-0.0109
6,CTGGAGTC,-0.0964
7,CGCCTAAC,0.0446
8,CAACAATA,0.181
9,ACCCCCCT,-0.392
10,AGGATTCA,-0.0848
11,TACTGTCA,-0.0755
12,ATACTCCG,0.487
13,TAACAGGA,0.0331
14,AACGAGTG,-0.00112
15,CACGCATC,-0.0275
16,CGAAATGC,-0.0217
17,GCCGATAC,-0.19
18,GCTAGTGA,-0.00823
19,AGTACCAC,-0.00996
20,ACCCTCAT,-0.22
21,CGGCGCAG,0.00289
22,CCGGTTAG,0.1
23,ATTTCGTA,0.0444
24,AACGTTCC,-0.0663
25,GGAGTTTA,0.396

row,Sequence,PBM E-score
1,CTTGAGAA,-0.0815
2,GCTGGGTA,-0.163
3,CCATTGAG,0.0176
4,ACTTATGG,-0.158
5,AACAGTAT,0.127
6,ATACCAAA,0.149
7,CCGATTTC,0.1
8,AACTTCTC,0.05
9,CCCCGCCC,0.116
10,ACAGATAG,-0.0172
11,ATGCACTC,-0.0896
12,TACTATGA,0.143
13,AGTCGGAC,0.337
14,GTTGGACA,-0.0794
15,ATAGAAAG,0.0197
16,ATTTATTG,0.16
17,ATACCGCG,-0.147
18,GAGCGCTC,-0.153
19,ACTTATAC,0.264
20,AACGGCAG,-0.0217
21,AAGTAAGT,0.123
22,GATCTCGC,-0.0977
